Source: PubChem BioAssay AID488969 (Vanderbilt High Throughput Screening Facility, 2010)
In all, about 110,000 compounds were measured (“z-score”: median about -0.1, highest 2% from about 2 on). Some of the results follow.

target: Metabotropic glutamate receptor 8 (Rattus norvegicus) (UniProt P70579); test: rat mGluR8 modulators via GIRK flux, primary screen, cell-based, thallium flux, HTS (AID 488969); conditions: HEK293 rat mGluR8, GIRK (G protein-gated inwardly rectifying potassium channel) thallium flux, FluoZin2; at 10 µM; stronger effect = higher value; submaximal glutamate (EC20) added with thallium
UniProt P70579, sequence (P70579 whole entry, looked up): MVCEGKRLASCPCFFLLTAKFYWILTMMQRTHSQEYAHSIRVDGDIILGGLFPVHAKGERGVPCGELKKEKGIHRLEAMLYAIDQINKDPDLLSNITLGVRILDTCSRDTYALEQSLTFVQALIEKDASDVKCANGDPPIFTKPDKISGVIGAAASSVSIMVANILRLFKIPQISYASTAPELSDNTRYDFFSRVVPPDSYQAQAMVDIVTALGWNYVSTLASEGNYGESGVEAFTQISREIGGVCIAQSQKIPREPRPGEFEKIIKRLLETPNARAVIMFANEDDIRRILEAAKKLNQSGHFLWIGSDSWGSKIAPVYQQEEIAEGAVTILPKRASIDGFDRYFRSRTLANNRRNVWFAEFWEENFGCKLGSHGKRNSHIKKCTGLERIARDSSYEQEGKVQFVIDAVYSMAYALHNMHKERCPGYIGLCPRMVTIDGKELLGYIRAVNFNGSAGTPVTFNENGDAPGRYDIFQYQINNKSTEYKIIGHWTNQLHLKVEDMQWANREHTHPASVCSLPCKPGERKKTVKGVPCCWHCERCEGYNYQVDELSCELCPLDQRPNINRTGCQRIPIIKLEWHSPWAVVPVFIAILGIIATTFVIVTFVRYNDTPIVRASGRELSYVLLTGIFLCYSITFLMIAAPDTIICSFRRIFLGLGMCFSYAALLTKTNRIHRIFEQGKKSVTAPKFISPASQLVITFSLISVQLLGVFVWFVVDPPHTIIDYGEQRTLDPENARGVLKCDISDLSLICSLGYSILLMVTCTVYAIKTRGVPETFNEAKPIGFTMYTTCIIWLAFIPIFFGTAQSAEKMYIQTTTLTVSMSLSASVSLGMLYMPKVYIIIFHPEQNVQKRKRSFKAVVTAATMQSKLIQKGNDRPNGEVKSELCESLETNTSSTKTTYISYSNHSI

Row | SMILES | z-score
1 | CCN(c1ccc(NC(=O)CSc2nnc3nc(C)cc(C)n23)cc1)C(C)C | -0.565
2 | CC(C)c1nc(NCc2ccccc2)c(C#N)c2c1CCCC2 | -0.133
3 | Cc1c(C(=O)NCCCc2ccccc2)cccc1[N+](=O)[O-] | -0.434
4 | c1ccc(-c2csc(Cc3nnc4n3CCCCC4)n2)cc1 | 0.197
5 | Cc1cccc(Cn2cnc3c(nnn3Cc3ccc(F)cc3)c2=O)c1 | 0.12
6 | Cc1ccc(-n2ncc(C#N)c2/N=C/N2CCOCC2)cc1 | -0.432
7 | Cn1c(CN2CCCC2)nc2cc(NC(=O)COc3ccccc3)ccc21 | 0.0972
8 | CCSc1nc2ccccc2n1Cc1cccc([N+](=O)[O-])c1 | -0.287
9 | COCCN1C(=O)C(CC(=O)Nc2ccc(C(C)=O)cc2)SC1=Nc1ccccc1 (centres undefined) | -0.776
10 | Cn1c(=O)c2c(nc(NCC3CCCO3)n2Cc2ccccc2)n(C)c1=O (centres undefined) | 0.0853
11 | CCCOc1ccc(N2C(=O)CC(N3CCCC(C(=O)N4CCCC4)C3)C2=O)cc1 (centres undefined) | 0.778
12 | O=C(c1ccc2c(c1)OCO2)N1CCN(C(=O)c2ccco2)CC1 | -0.43
13 | COc1ccccc1/C=C/C(=O)NC(=S)Nc1ccc(S(=O)(=O)N(C)c2ccccc2)cc1 | 0.119
14 | Cc1nnc(NC(=O)C2(c3ccccc3)CCOCC2)s1 | -0.218
15 | C(=N\N1CCN(C2c3ccccc3-c3ccccc32)CC1)/c1ccccn1 | -0.243
16 | O=C(Oc1cccc2cccnc12)c1ccc(N2C(=O)C3C4CCC(C4)C3C2=O)cc1 (centres undefined) | -0.0588
17 | CNCc1ccccc1Sc1cccc2ccccc12 | 1.05
18 | COc1ccccc1NC(=O)CC(NCc1ccccc1)C(=O)O (centres undefined) | 1.75
19 | Cc1nc2c3cnn(-c4ccc(C)c(C)c4)c3ncn2n1 | -0.107
20 | Cc1cc(C)cc(OC(=O)CS(=O)c2ccc(C(F)(F)F)cc2[N+](=O)[O-])c1 (centres undefined) | -0.247
21 | CCC(OC(=O)CCc1nc2ccccc2[nH]c1=O)C(=O)c1ccccc1 (centres undefined) | -0.269
22 | Cc1nc2c(sc3nc4c(cc32)COC(C)(C)C4)c(=O)n1CC(=O)NCc1ccco1 | -0.124
23 | O=C(/C=C/c1ccc(Cl)cc1)Nc1ccc(CN2CCOCC2)cc1 | -0.0212
24 | COc1ccc(/C=C(/C(=O)Nc2ccccc2C(=O)NC(C)C)c2ccccc2)cc1 | -0.486
25 | CSc1ccccc1C(=O)Nc1cccc(C(C)O)c1 (centres undefined) | 0.209
26 | COc1ccc(NS(=O)(=O)c2cc([N+](=O)[O-])ccc2N/N=C\c2c(C)[nH]c3ccccc23)cc1 | 0.0262
27 | Cc1ccc(NC(=O)CO/N=C(\N)c2nonc2N)cc1C | -0.037

Row | SMILES | z-score
28 | Cc1nn(C)c(Cl)c1NC(=O)OCc1ccc(F)cc1 | -0.0466
29 | O=C(C1CCCN(S(=O)(=O)c2cccc3nsnc23)C1)N1CCc2ccccc21 (centres undefined) | -0.196
30 | CCn1c(C)nc2cc(C(=O)N/N=C/c3ccc(OC)c(O)c3)ccc21 | 0.135
31 | COc1ccc(OCC(=O)Nc2ccc3c(c2)nc2n3CCSC2)cc1 | -0.24
32 | O=C(O)CCNS(=O)(=O)c1ccc2c(c1)Cc1ccccc1-2 | -0.564
33 | CCC(=O)NCCC(c1ccco1)c1ccccc1OC (centres undefined) | -0.0301
34 | O=[N+]([O-])c1ccc(Oc2ccc(F)cc2Br)c2ccncc12 | -0.634
35 | Cc1ccc(C(=O)NN2C(=O)C3C4c5ccccc5C(c5ccccc54)[C@@H]3C2=O)cc1 (some centres undefined) | 0.199
36 | CNc1cc([N+](=O)[O-])ccc1N/C=C/C(=O)c1ccc2c(c1)OCO2 | 0.169
37 | O=C(Cn1c(=S)nc2ccccn21)N1CCc2ccccc2C1 | -0.216
38 | Cc1ccc2[nH]c3c(=O)n(CCN4CCOCC4)cnc3c2c1 | 0.0978
39 | CCn1nc(C)c(/C=N/NC(=O)c2ccoc2C)c1C | -0.358
40 | O=C(CC1Nc2ccccc2NC1=O)NCc1cccnc1 (centres undefined) | 0.517
41 | CCC(C)NC(=O)Cc1cn(C)c2ccccc12 (centres undefined) | -0.269
42 | O=c1c2ccccc2c(C=Nc2ccc(Cl)cn2)c(O)n1-c1cc(Cl)ccc1N1CCOCC1 | -0.0753
43 | CCCCC(=O)Nc1cc([N+](=O)[O-])ccc1Cl | -0.0694
44 | O=C(CN1C(=O)C2C3C=CC(C3)C2C1=O)Nc1nc(-c2ccccn2)cs1 (centres undefined) | -0.0039
45 | CN(C)CCCNC(=O)c1cc(S(=O)(=O)N2CCOCC2)ccc1F | 0.00737
46 | O=C1N(c2ccccc2)C2CS(=O)(=O)CC2N1c1ccc(Br)cc1 (centres undefined) | 0.00782
47 | COc1ccc2nc(Nc3nc4cc5c(cc4s3)OCO5)sc2c1 | 0.175
48 | COc1ccc(C(=O)Nc2nc3nccc(-c4ccccc4)n3n2)cc1 | -0.428
49 | C/C(=N\NC(=O)c1ccc(CN(C)S(=O)(=O)c2ccc(C)cc2)cc1)c1ccc(OC(F)F)cc1 | -0.0384
50 | Cc1noc(C)c1COc1ccc(C(=O)OCC(=O)Nc2cccc(S(=O)(=O)N3CCOCC3)c2)cc1 | -0.17
51 | COc1ccc(S(=O)(=O)N2CC(C(=O)O)Oc3ccc(CC(=O)O)cc32)cc1 (centres undefined) | -0.188
52 | O=C(CSc1nnc(-c2ccccc2)n1C1CCCCC1)Nc1ccc(S(=O)(=O)Nc2ccccn2)cc1 | -1.32
53 | CCC(=O)Nc1cc2c(C)cc(=O)oc2cc1C | -0.152
54 | COC(=O)Cc1cc(=O)n(-c2nc3ccccc3[nH]2)[nH]1 | -0.535
